Experimental data reported in PubChem BioAssay AID1963576 (National Center for Advancing Translational Sciences (NCATS), 2024).
The campaign covered roughly 46,000 compounds. About 60 (0.1%) were called active. Not shown: some 3% with an inconclusive outcome. Calls come from the whole dose curve; as a rule, active = well fitted inhibition curve with a large enough effect; inconclusive = small, poorly fitted or top-dose-only effect; inactive = no such curve, though single readings can be large or run the other way. The list shows a part of the results.

Assay: Primary qHTS assay for Inhibitors of ovarian cancer metastasis using an organotypic tumor microenvironment (TME) model.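 For activity change, negative = inhibition: plate controls were DMSO wells for no effect and tomatine positive control wells for full effect.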 Note: nearly all actives have a fitted effect of over 65% in size.
Details: SKOV3ip1-GFP adhesion/invasion on 3D omental model, fluorescence; series mostly up to 45.8 µM; activity change, negative = inhibition: at the top concentration
How it was run: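 qHTS, 4-pt dose (0.36-46 umol/L); SKOV3ip1-GFP, 1,200 cells/well, no FBS; primary omental fibroblast/mesothelial co-culture 48 h pre-grown; 2 h RT + 16 h 37 C; PBS wash, 4% PFA; GFP count 488/509 nm.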

Activity change, negative = inhibition, inactive:
COc1ccccc1Cn1c(CNS(=O)(=O)c2c(C)cc(C)cc2C)nc2cccnc21 -18.3%
C[C@H](NC(=O)Cc1cc(F)cc(F)c1)C(=O)N[C@@H]1C(=O)N(C)c2ccccc2-c2ccccc21 37.9%
CCOCCn1ccc2c(OCC(=O)Nc3cc(C(F)(F)F)ccc3Cl)cccc2c1=O 1.68%
Cc1cccc(C(=O)Nc2cc3c(cc2N2CCCCC2)n(C)c(=O)n3C)c1 -7.62%
CCn1cc(S(=O)(=O)c2ccccc2)c(=O)c2cc(F)c(N3CCCCCC3)cc21 0.0686%
CC(=O)c1cccc(NC(=O)c2ccc3c(c2)CCN3S(=O)(=O)c2ccccc2)c1 6.47%
COc1ccc(C2NC(=O)N(C)C3=C2C(=O)N(c2ccccc2)C3)cc1 (stereo unspecified) -8.6%
O=C(O)c1ccc(Nc2ncc3c(n2)-c2ccc(Cl)cc2C(c2c(F)cccc2F)=NC3)cc1 10.5%
COc1ccc(-c2nc3c(C#N)c[nH]n3c2NC2CCCCC2)cc1 -12.5%
CCC12CN3CC(C)(CN(C1)C3c1c(C)[nH]c3ccccc13)C2=O (stereo unspecified) 5.49%
COc1ccc(CCNC(=O)C(C)n2nc(C)c3sc4ccccc4c3c2=O)cc1OC (stereo unspecified) 0.725%
COc1ccc(-c2nc(C)c(CCNC(=O)c3cccc(C)c3)s2)cc1OC -1.46%
COCCNC(=O)C(=O)Nc1ccc2nc3n(c(=O)c2c1)CCCCC3 2.72%
Cc1ccc(C)c(N2CCN(C(=O)CN3C(=O)COc4ccc(S(=O)(=O)N5CCOCC5)cc43)CC2)c1 6.84%
Cc1ccc(C)c(CNC(=O)C2CCCCN2S(=O)(=O)c2ccc(F)cc2)c1 (stereo unspecified) 3.58%
CCCCC(=O)Nc1nnc(S(=O)(=O)N2CCCCCC2)s1 4.63%
O=C(Nc1ccc(F)c(Cl)c1)C1CCCN(c2ncnc3onc(-c4ccc(F)cc4)c23)C1 (stereo unspecified) -3.98%
CCC(=O)N1c2ccccc2CC1C(=O)NCCCN1CCN(c2ccccc2)CC1 (stereo unspecified) -8.61%
COc1ccc(C2C=C(c3ccc(C)cc3)Nc3c(C(=O)Nc4ccccc4)cnn32)cc1 (stereo unspecified) -12%
CCCS(=O)(=O)c1c(S(=O)(=O)CCC)c2cc(C(C)(C)C)ccn2c1C(=O)c1ccc(OC)c(OC)c1 -8.68%
COc1ccccc1CNC(=O)c1cc2sccc2n1Cc1ccc(F)cc1 -21.2%
Cc1ccc(C)c(NC(=O)c2cc(S(=O)(=O)N3CCc4ccccc4C3)ccc2F)c1 7.72%
COc1ccccc1NC(=O)Cn1c(=O)n(-c2ccccc2Cl)c(=O)c2sc3ccccc3c21 4.62%
COCCCn1c(SCc2ccccc2F)nc2c(sc3ccccc32)c1=O -8.83%
CCc1cccc(NC(=O)Cn2c(C(=O)OC)cc3occc32)c1 9.09%
O=C(Cn1ncc2c3ccccc3n(Cc3ccccc3)c2c1=O)N1CCCCCC1 -2.97%
COc1ccc(-c2noc(-c3ccccc3OCC(=O)Nc3ccc(C(C)=O)cc3)n2)cc1 -3.18%
CCN(CC)S(=O)(=O)c1ccc2c(c1)N(CC(=O)Nc1ccc(F)cc1F)C(=O)C1CCCN21 (stereo unspecified) -12.5%
CSc1cccc(Nc2ncc3cc(-c4c(Cl)cccc4Cl)c(=O)n(C)c3n2)c1 -5.82%
Oc1cccc(-c2nc3ncccn3c2Nc2cccc(C(F)(F)F)c2)c1 5.23%
CCn1cc(C(=O)NCCc2ccc(Cl)cc2)c(=O)c2cc(S(=O)(=O)N3CCOCC3)ccc21 -1.45%
CCOC(=O)c1[nH]c2ccccc2c1NC(=O)c1ccc(OC)c(OC)c1 0.872%
COc1cc(NC(=O)Cn2c(C)cc(C)c(C#N)c2=O)cc(OC)c1 -2.05%
CCOc1ccc2nc(Cl)c(C3CC(c4ccc(C)cc4)=NN3C(=O)CCCC(=O)O)cc2c1 (stereo unspecified) 23%
Cc1ccc2c(=O)cc(C(=O)Nc3ccc(S(=O)(=O)N4CCCCC4)cc3)oc2c1C 4.27%
COc1ccccc1Nc1nc2c(S(=O)(=O)c3ccc(C(C)C)cc3)nnn2c2ccsc12 4.74%
COc1ccccc1Cc1nc2ccccc2nc1SCC(=O)NCc1ccc(F)cc1 -21.6%
Cc1c(-c2ccccc2)n(-c2ccc(Cl)cc2)c2nc3c(c(=O)n(C)c(=O)n3C)n12 7.62%
Cc1coc2cc3oc(=O)c(CC(=O)NCCc4ccccc4F)c(C)c3cc12 4.37%
Cc1ccc(NC(=O)CCc2nc3cccnc3n2-c2ccccc2)cc1 1.72%
Cc1cc(C)c2oc(-c3ccc(NC(=O)c4cc(Br)ccc4Cl)cc3)nc2c1 5.95%
O=C(c1ccccc1Cl)n1nc(-c2ccco2)nc1NCc1cccs1 1.72%
CCOc1cc2ncc(C#N)c(Nc3ccc(F)c(Cl)c3)c2cc1NC(=O)C=CCN(C)C -2.34%
Cc1nc2cnc3ccc(C#Cc4cccnc4)cc3c2n1-c1ccc(C(C)(C)C#N)cc1 -11.9%
CCc1ccc(S(=O)(=O)NCCc2cn3ccsc3n2)cc1 8.83%
CC(=O)N1CCCc2cc(S(=O)(=O)N(C)CC(=O)Nc3cccc(Cl)c3C)ccc21 -0.713%
Cn1c(=O)c2cc(S(=O)(=O)NC(Cc3ccccc3)C(=O)Nc3ccc(F)cc3)ccc2n(C)c1=O (stereo unspecified) 7.64%
COc1ccc(OC)c(CCNc2ncnc3onc(-c4ccc(Cl)cc4)c23)c1 48.1%
Cc1cccc(CNC(=O)c2cnc3c(-c4cccc(C)c4)c(C)nn3c2C)c1 -2.76%
CCOC(=O)c1ccc(CN(Cc2ccc(F)cc2)S(=O)(=O)c2ccc(F)c(C(=O)Nc3cc(Cl)ccc3OC)c2)cc1 -1.07%
Cc1ccccc1Cn1c2ccccc2c2cnn(CC(=O)NCc3cccc(Cl)c3)c(=O)c21 -8.37%
Cn1cc(-c2cc3n(n2)CCC(=O)N3CCCC(=O)Nc2ccc(Cl)cc2)c2ccccc21 1.64%
CC(C)c1ccc(OCC(=O)Nc2ccc(S(=O)(=O)Nc3ncccn3)cc2)cc1 -23.3%

outcome, inactive:
Cc1ccc2c(c1)N(CC(=O)NCc1cccc(Cl)c1)C(=O)c1cccnc1O2
Cc1ccccc1OCC(=O)Nc1ccc(S(=O)(=O)Nc2ncccn2)cc1
CCOc1ccc(CCNC(=O)c2cc3cc4ccc(OC)cc4nc3s2)cc1OCC
CCOCCCn1c(=N)c(S(=O)(=O)c2ccccc2)cc2c(=O)n3cc(C)ccc3nc21
Cc1ccc(-n2nc(C)c3c(C)c(CCC(=O)NCc4cccc(Cl)c4)c(C)nc32)cc1C
CCOc1ccc(C2C(C(=O)Nc3ccc(C)cc3C)=C(C)Nc3c(C(=O)Nc4ccc(C)cc4)cnn32)cc1OC (stereo unspecified)
COc1ccc(C(=O)Oc2c(Sc3ccc(C)cc3)c(C)nn2C(C)(C)C)c(OC)c1
Cc1cccc(-c2cc(NC(=O)c3ccccc3C)n(-c3ccccc3)n2)c1
CCOc1ccc(NC(=O)c2cccc(N3CCCS3(=O)=O)c2)cc1
COC(=O)c1cc2sccc2n1Cc1ccc(F)cc1
COc1ccc(Br)cc1CNC(=O)CCCn1c(=O)c2cccn2c2cccnc21
COc1ccc(CNC(=O)CCCCCn2c(=O)[nH]c3ccccc3c2=O)cc1
Cc1ccc(CNc2ccc(-c3nc(-c4cccnc4)no3)cc2[N+](=O)[O-])cc1
CCOC(=O)c1[nH]c2ccccc2c1NC(=O)c1cc(Cl)ccc1Cl
Cc1cccc(N2CCN(c3ncnc4onc(-c5ccc(F)cc5)c34)CC2C)c1 (stereo unspecified)
O=C(CC(c1cccs1)N1Cc2ccccc2C1=O)Nc1ccc(Cl)cc1 (stereo unspecified)
O=C(Cn1c(=O)n(Cc2ccc(C(=O)NCc3ccccc3Cl)cc2)c(=O)c2ccccc21)Nc1ccc(F)cc1
CCCCC(=O)N1c2ccccc2C(C)(c2ccccc2)CC1(C)C (stereo unspecified)
Cc1nc(-n2nc(C)c(Cc3ccc(Cl)cc3)c2C)sc1C(=O)N1CCC(C)CC1
Cc1ccc(NC(=O)CSc2nc3c(oc4ccccc43)c(=O)n2Cc2ccco2)cc1F
Cc1ccc(N2CCN(C(=O)c3c(C)oc4ncn(C)c(=O)c34)CC2)c(C)c1
CCN(CC)c1ccc(NC(=O)COCc2cc(-c3ccc4c(c3)OCO4)on2)c(C)c1
COc1ccc(CNC(=O)c2cc3c(=O)n(Cc4ccco4)ccc3nc2C)c(OC)c1
